Values joined by “and” are separate entries in the source; they are usually repeats but may differ in a detail not shown here. Equal values may be shown once. The source gives many values for each of these; only a part stands here.
Legend:
Rat [1] = assay: concentration in liver after dosing; settings: 768 h; dosed: 3,3',4,4',5-pentachlorobiphenyl; 1000 mg/kg; oral; Female; Harlan Sprague Dawley
Rat [2] = assay: concentration in liver after dosing; settings: 7416 h; dosed: 3,3',4,4',5-pentachlorobiphenyl; 1000 mg/kg; oral; Female; F344
Rat [3] = assay: concentration in liver after dosing; settings: 1464 h; dosed: 3,3',4,4',5-pentachlorobiphenyl; 1000 mg/kg; oral; Female; Harlan Sprague Dawley
Rat [4] = assay: concentration in liver after dosing; settings: 2880 h; dosed: 3,3',4,4',5-pentachlorobiphenyl; 1000 mg/kg; oral; Female; Harlan Sprague Dawley
Rat [5] = assay: concentration in liver after dosing; settings: 1464 h; dosed: 3,3',4,4',5-pentachlorobiphenyl; 1000 mg/kg; oral; Female; Harlan Sprague Dawley; remark: listed apart in the source
Rat [6] = assay: concentration in liver after dosing; settings: 2880 h; dosed: 3,3',4,4',5-pentachlorobiphenyl; 1000 mg/kg; oral; Female; Harlan Sprague Dawley; remark: listed apart in the source
Rat [7] = assay: concentration in liver after dosing; settings: 3 h; dosed: 3,3',4,4',5-pentachlorobiphenyl; 1000 mg/kg; oral; Female; F344
Rat [8] = assay: concentration in liver after dosing; settings: 5088 h; dosed: 3,3',4,4',5-pentachlorobiphenyl; 1000 mg/kg; oral; Female; F344
Rat [9] = assay: concentration in liver after dosing; settings: 288 h; dosed: 3,3',4,4',5-pentachlorobiphenyl; 1000 mg/kg; oral; Female; Harlan Sprague Dawley
Rat [10] = assay: concentration in liver after dosing; settings: 5088 h; dosed: 3,3',4,4',5-pentachlorobiphenyl; 1000 mg/kg; oral; Female; F344; remark: listed apart in the source
Rat [11] = assay: concentration in liver after dosing; settings: 1464 h; dosed: 3,3',4,4',5-pentachlorobiphenyl; 1000 mg/kg; oral; Female; Harlan Sprague Dawley; remark: listed apart in the source
Rat [12] = assay: concentration in liver after dosing; settings: 3984 h; dosed: 3,3',4,4',5-pentachlorobiphenyl; 1000 mg/kg; oral; Male; F344
Rat [13] = assay: concentration in liver after dosing; settings: 1464 h; dosed: 3,3',4,4',5-pentachlorobiphenyl; 1000 mg/kg; oral; Female; Harlan Sprague Dawley; remark: listed apart in the source
Rat [14] = assay: concentration in liver after dosing; settings: 8760 h; dosed: 3,3',4,4',5-pentachlorobiphenyl; 1000 mg/kg; oral; Male; Harlan Sprague Dawley
Rat [15] = assay: concentration in brain after dosing; settings: 1.5 h; dosed: alpha/beta-Thujone mixture; 50 mg/kg; oral; Female; F344
Rat [16] = assay: concentration in plasma after dosing; settings: 1.5 h; dosed: 76231-76-0; 3.0 mg/kg; iv; Female; F344
Rat [17] = assay: concentration in brain after dosing; settings: 0.5 h; dosed: alpha/beta-Thujone mixture; 50 mg/kg; oral; Male; F344
Rat [18] = assay: concentration in plasma after dosing; settings: 3 h; dosed: alpha/beta-Thujone mixture; 50 mg/kg; oral; Female; F344
Rat [19] = assay: concentration in brain after dosing; settings: 10 min; dosed: alpha/beta-Thujone mixture; 50 mg/kg; oral; Female; F344
Rat [20] = assay: concentration in brain after dosing; settings: 2 min; dosed: alpha/beta-Thujone mixture; 50 mg/kg; oral; Female; F344
Rat [21] = assay: concentration in plasma after dosing; settings: 10 min; dosed: alpha/beta-Thujone mixture; 50 mg/kg; oral; Female; F344
Rat [22] = assay: concentration in plasma after dosing; settings: 10 min; dosed: alpha/beta-Thujone mixture; 25 mg/kg; oral; Female; F344
Rat [23] = assay: concentration in brain after dosing; settings: 1.5 h; dosed: 76231-76-0; 3.0 mg/kg; iv; Female; F344
Rat [24] = assay: concentration in brain after dosing; settings: 10 min; dosed: alpha/beta-Thujone mixture; 25 mg/kg; oral; Male; F344
Rat [25] = assay: concentration in plasma after dosing; settings: 1.5 h; dosed: 76231-76-0; 3.0 mg/kg; iv; Female; F344; remark: listed apart in the source
Rat [26] = assay: concentration in brain after dosing; settings: 1.5 h; dosed: alpha/beta-Thujone mixture; 25 mg/kg; oral; Female; F344
Rat [27] = assay: concentration in plasma after dosing; settings: 0.75 h; dosed: 76231-76-0; 3.0 mg/kg; iv; Female; F344
Rat [28] = assay: concentration in plasma after dosing; settings: 0.25 h; dosed: 76231-76-0; 3.0 mg/kg; iv; Female; F344
Rat [29] = assay: concentration in plasma after dosing; settings: 5 min; dosed: 76231-76-0; 3.0 mg/kg; iv; Female; F344
Rat [30] = assay: concentration in plasma after dosing; settings: 0.25 h; dosed: 76231-76-0; 3.0 mg/kg; iv; Female; F344; remark: listed apart in the source
Rat [31] = assay: concentration in plasma after dosing; settings: 12 h; dosed: alpha/beta-Thujone mixture; 50 mg/kg; oral; Male; F344
Rat [32] = assay: concentration in brain after dosing; settings: 10 min; dosed: alpha/beta-Thujone mixture; 25 mg/kg; oral; Male; F344; remark: listed apart in the source
Rat [33] = assay: concentration in plasma after dosing; settings: 6 h; dosed: alpha/beta-Thujone mixture; 25 mg/kg; oral; Male; F344
mouse = assay: concentration in blood after dosing; negative times count back from the end of exposure; settings: dosed: tert-amyl methyl ether, inhalation, duration: 6 hr, female, CD-1 (Charles River)
Method in brief: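 Data points giving concentration or amount against time came from published in vivo toxicokinetic studies and from two structured collections. PubMed searching, classifier screening and manual review located the studies. Most points were digitised from plot screenshots using WebPlotDigitizer, the rest were copied from tables, and all keep their reported units.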

Clc1ccc(-c2cc(Cl)c(Cl)c(Cl)c2)cc1Cl [3,3',4,4',5-pentachlorobiphenyl]
Settings	concentration in liver [pg/g]
Rat [1]	5790
Rat [2]	575
Rat [3]	4680
Rat [4]	2260
Rat [5]	4850
Rat [6]	3020
Rat [7]	10500
Rat [8]	847
Rat [9]	7070
Rat [10]	833
Rat [11]	2970
Rat [12]	2180
Rat [13]	4340
Rat [14]	696

CC(C)[C@]12CC(=O)[C@H](C)[C@H]1C2 [alpha-Thujone]
Settings	concentration in brain [ng/g]	concentration in plasma [ng/mL]
Rat [15]	1120	–
Rat [16]	–	16.2
Rat [17]	424	–
Rat [18]	–	256
Rat [19]	2770	–
Rat [20]	342	–
Rat [21]	–	868
Rat [22]	–	756
Rat [23]	55.3	–
Rat [24]	596	–
Rat [25]	–	12.2
Rat [26]	815	–
Rat [27]	–	48.8
Rat [28]	–	174
Rat [29]	–	634
Rat [30]	–	241
Rat [31]	–	17.6
Rat [32]	212	–
Rat [33]	–	72.1

CCC(C)(C)OC [tertiary amyl methyl ether]
mouse
Settings	concentration in blood
0.1362 h, 100 ppm	222 ng/mL and 355 ng/mL
0.1578 h, 100 ppm	469 ng/mL
0.159 h, 500 ppm	4840 ng/mL and 3010 ng/mL and 3920 ng/mL
0.5048 h, 100 ppm	87.8 ng/mL
0.5231 h, 500 ppm	3610 ng/mL and 2390 ng/mL and 3000 ng/mL
0.5264 h, 100 ppm	250 ng/mL
0.9818 h, 100 ppm	116 ng/mL and 249 ng/mL
1.871 h, 100 ppm	95.8 ng/mL
1.932 h, 2500 ppm	3240 ng/mL
1.933 h, 2500 ppm	288 ng/mL
1.979 h, 500 ppm	37.1 ng/mL
4.082 h, 100 ppm	83.7 ng/mL
4.103 h, 500 ppm	19.8 ng/mL
9.872 h, 100 ppm	77.1 ng/mL
9.928 h, 500 ppm	74.2 ng/mL
10.02 h, 2500 ppm	995 ng/mL
17.83 h, 100 ppm	77.6 ng/mL
17.89 h, 2500 ppm	1280 ng/mL
17.94 h, 500 ppm	111 ng/mL

concentration in blood, mouse, during exposure
Settings	-6 h	-5.788 h	-5.653 h	-5.454 h	-4.135 h	-4.089 h	-2.075 h	-2.032 h	-0.2107 h
100 ppm	905 ng/mL	–	1360 ng/mL	–	1280 ng/mL and 1580 ng/mL and 1810 ng/mL	–	2490 ng/mL and 2030 ng/mL and 910 ng/mL	1350 ng/mL	1700 ng/mL and 1570 ng/mL and 1500 ng/mL
500 ppm	–	8660 ng/mL	–	7230 ng/mL	–	14100 ng/mL and 11900 ng/mL and 8850 ng/mL	–	–	–
